Values joined by “and” are separate entries in the source; they are usually repeats but may differ in a detail not shown here. Equal entries are not always repeated. About 40 (0.2%) of roughly 16,000 compounds were called active. Inconclusive results (about 1%) are left out. Calls come from the whole dose curve; as a rule, active = well fitted activation curve with a large enough effect; inconclusive = small, poorly fitted or top-dose-only effect, or another doubt; inactive = no such curve, though single readings can be large or run the other way. Some of the results follow.
What follows are compounds tested against Rap guanine nucleotide exchange factor 4 (Homo sapiens) (UniProt Q8WZA2) (assay: Validation qHTS for agonist of cAMP-regulated guanine nucleotide exchange factor 4 (EPAC2)). Conditions: EPAC2 Rap1B BODIPY-GDP exchange, fluorescence; activation: stronger effect = higher value.
Chain of UniProt Q8WZA2 (Q8WZA2 whole entry, looked up): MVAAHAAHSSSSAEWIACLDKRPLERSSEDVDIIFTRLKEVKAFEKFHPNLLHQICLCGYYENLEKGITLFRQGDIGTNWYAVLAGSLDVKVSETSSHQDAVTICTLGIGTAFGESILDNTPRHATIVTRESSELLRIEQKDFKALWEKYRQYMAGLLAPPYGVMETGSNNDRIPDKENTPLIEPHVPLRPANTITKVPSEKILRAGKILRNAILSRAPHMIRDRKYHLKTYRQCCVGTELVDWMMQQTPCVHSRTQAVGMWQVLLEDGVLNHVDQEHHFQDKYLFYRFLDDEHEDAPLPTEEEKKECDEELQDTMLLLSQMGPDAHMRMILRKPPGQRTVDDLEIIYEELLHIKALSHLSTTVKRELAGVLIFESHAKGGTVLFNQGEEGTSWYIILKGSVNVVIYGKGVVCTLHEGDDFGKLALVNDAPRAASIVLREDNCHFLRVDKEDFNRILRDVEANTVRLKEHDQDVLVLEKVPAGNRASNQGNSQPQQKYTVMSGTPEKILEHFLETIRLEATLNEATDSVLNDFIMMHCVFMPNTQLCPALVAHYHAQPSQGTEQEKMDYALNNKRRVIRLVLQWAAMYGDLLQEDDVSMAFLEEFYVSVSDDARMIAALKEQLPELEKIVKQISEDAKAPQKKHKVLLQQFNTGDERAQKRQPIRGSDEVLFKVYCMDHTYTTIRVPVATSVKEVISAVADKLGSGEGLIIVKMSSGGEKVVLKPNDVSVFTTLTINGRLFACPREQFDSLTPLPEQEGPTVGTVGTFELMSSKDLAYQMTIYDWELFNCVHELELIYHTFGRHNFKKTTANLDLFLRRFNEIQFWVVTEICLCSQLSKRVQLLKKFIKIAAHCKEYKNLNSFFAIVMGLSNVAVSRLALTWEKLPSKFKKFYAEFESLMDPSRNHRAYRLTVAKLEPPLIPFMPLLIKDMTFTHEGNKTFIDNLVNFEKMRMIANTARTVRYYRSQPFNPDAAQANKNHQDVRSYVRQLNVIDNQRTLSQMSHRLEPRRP
In short: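 Signal normalized against 6.5 mM cAMP as agonist control. Mix of EPAC2 (100 nM), RAP1B-BODIPY-GDP (250 nM) and GDP (50 uM) was read kinetically at 480/540 nm, every 5 min over 30 min, after 5 min room-temperature incubation with compound.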
% is set by controls: 0 for no effect and ±100 for the full control effect.
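Note: exchange makes BODIPY-GDP fluorescence drop when released from Rap1B; series mostly up to about 150 µM.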

activation, inactive:
Cc1ccc(CNc2nc(CN3CCNC(=O)C3)nc3ccccc23)o1 7.11%
CCOC(=O)Oc1c(OC)cc(C(=O)O[C@@H]2C[C@@H]3CN4CCc5c([nH]c6cc(OC)ccc56)[C@H]4C[C@@H]3[C@H](C(=O)OC)[C@H]2OC)cc1OC -0.25%
Cc1noc(C)c1-c1cc(NCc2ccccc2)ncn1 -7.49%
CN(C)c1nc2cc3c(cc2cc1CN(CC1CCCO1)C(=O)c1cccc(F)c1)OCO3 (stereo unspecified) -0.994%
O=C(c1ccncc1)N1CCC2(CCC(CNC(=O)C3(N4CCOCC4)CCCCC3)O2)CC1 (stereo unspecified) -2.74%
Cc1c(O)c(=O)ccn1C -2.65%
COc1cc(=O)n2c(c1C(=O)NC(C)c1ccco1)CCN(C(=O)c1[nH]c(C)cc1C)CC2 (stereo unspecified) -1.19%
Cc1c(C(=O)NCC2(N3CCOCC3)CCCC2)cnn1-c1nccc(-c2ccccc2F)n1 -0.878%
CC(=O)OC1CC(OC(C)=O)[C@]2(C)C(CC(=O)[C@]3(C)C2CC[C@@]2(C)C(c4ccoc4)OC(=O)C4O[C@@]423)C1(C)C (stereo partly specified) -7.29%
Cc1ccc([N+](=O)[O-])cc1S(=O)(=O)N(C)C -86.1%
CC#C[C@]1(O)CC[C@H]2[C@@H]3CCC4=CC(=O)CCC4=C3[C@H](c3ccc(N(C)C)cc3)C[C@@]21C -30.1%
Cc1oc(-c2ccccc2NC(=O)c2ccccn2)nc1CNC(=O)c1cccc(C#CC(C)(C)O)c1 12.3%
CC[C@]1(O)C[C@@H]2CN(CCc3c([nH]c4ccccc34)[C@](C(=O)OC)(c3cc4c(cc3OC)N(C=O)[C@H]3[C@@](O)(C(=O)OC)[C@H](C(=O)OC)[C@@]5(CC)C=CCN6CC[C@]43[C@H]65)C2)C1 -11.8%
O=S1(=O)CCO[C@H]2Cc3ccccc3[C@H]2N1Cc1ccccc1Br -25.9%
CCC(=O)O[C@]1(C(=O)CCl)[C@@H](C)C[C@H]2[C@@H]3CCC4=CC(=O)C=C[C@]4(C)[C@@]3(F)[C@@H](O)C[C@@]21C -20.1%
O=C1CCNCCN1[C@H](CO)Cc1ccccc1 -14.8%
CCc1cc(C(=O)N2CCOc3ccc(CN4CCN(Cc5ccccn5)CC4)cc3C2)no1 -17.7%
O=C(NCc1nnc2n1CCN(C(=O)c1cccc(Cl)c1)CC2)C1CC1 -2.97%
CN(C)CC/C=C1\c2ccccc2Sc2ccc(Cl)cc21 -6.69% and -7.82%
c1ccc([C@H]2CN3CCSC3=N2)cc1 -22.8% and -64.1%
CN1C[C@H]2c3ccccc3Oc3ccc(Cl)cc3[C@@H]2C1 -5.32%
COc1ccc(-n2c(=O)c(-c3cccs3)nc3cnc(Oc4ccccc4)nc32)cc1 -2.82%
N[C@@H](CCCP(=O)(O)O)C(=O)O -1.88%
C=Cc1ccccc1 -2.95%
CC(C)(CNC(=O)c1cnn(-c2nccc(-c3cc4ccccc4o3)n2)c1C1CC1)N1CCOCC1 -8.26%
O=C(Cc1ccc[nH]c1=O)c1ccc(F)cc1 -10.9%
CCCCNC(=O)[C@@H]1Cc2ccccc2N1C(=O)[C@H](N)CC -9.91%
COCCn1c(=O)c(-c2cc(F)cc(F)c2)nc2cnc(N3CCN(C)CC3)nc21 -16.5%
C[C@]12CCC(=O)C=C1CC[C@@H]1C2[C@@H](O)C[C@@]2(C)[C@H]1CC[C@]2(O)C(=O)CO (stereo partly specified) 3.87%
COc1cccc(Cn2c(=O)c(-c3cc(F)cc(F)c3)nc3cnc(N(C)C)nc32)c1 -5.15%
CC(=O)Nc1ccccc1-c1nc(CNC(=O)c2cccc(-n3cccn3)c2)c(C)o1 0.628%
CC(C)NCC(O)c1ccc2ccccc2c1 (stereo unspecified) -7.88% and 2.44%
Clc1cccc(C(c2ccc3nc[nH]c3c2)n2ccnc2)c1 (stereo unspecified) -3.04%
COC(=O)c1c(OCc2ccccn2)cc(=O)n2c1CCN(Cc1cccc(C(F)(F)F)c1)CC2 -12.3%
Cc1nc2[nH]c(=O)[nH]c(=O)c2[nH]1 -3.92%
CC1=C[C@H](O)CC(C)(C)[C@H]1/C=C/C(C)=C/C=C/C(C)=C/C=C/C=C(C)/C=C/C=C(C)/C=C/C1=C(C)C[C@@H](O)CC1(C)C -26.6%
CC(=O)O[C@]1(C(C)=O)CC[C@H]2[C@@H]3C[C@H](C)C4=CC(=O)CC[C@]4(C)[C@H]3CC[C@@]21C -2.94%
O=C(O)c1cc(-c2ccccc2)nc2ccccc12 -17.4% and -9.23%
N[C@@H](Cc1ccccc1)C(=O)O -14.1%
CC1CN(CC(=O)NCC2(N3CCOCC3)CCCC2)Cc2cc(Cl)ccc2O1 (stereo unspecified) -5.16%
CC(=O)OCC(=O)[C@]1(O)C(OC(C)=O)CC2C3CCC4=CC(=O)C=C[C@@]4(C)[C@]3(F)C(O)C[C@]21C (stereo partly specified) 6.22%
O=C(NCC1(N2CCOCC2)CCCC1)c1cnn(-c2ncc3c(n2)-c2ccccc2CC3)c1C1CC1 6.05%
C[C@@H]1CN(Cc2ccc3c(c2)CN(Cc2cccc4c2OCO4)CCO3)C[C@H](C)O1 -2.91%
c1ccc2cnccc2c1 -15.7%
CCC1CN(CCNC(=O)c2ccsc2)Cc2cc(OC)ccc2O1 (stereo unspecified) -0.471%
CC(=O)Oc1ccc2c(c1)CCC1C2CC[C@]2(C)C(=O)CCC12 (stereo partly specified) -15.9%
Nc1nc2n[nH]nc2c(=O)[nH]1 -12.7%
O=c1c(-c2cccc(F)c2)nc2cncnc2n1Cc1ccccc1Cl -3.88%
COc1ccc(CNc2nc(-c3ccoc3)nc3ccccc23)c(OC)c1 -8.02%
Cc1ncc2c(c1CNS(=O)(=O)N(C)C)CCN(C(=O)/C=C/c1ccccc1)C2 -10.5%
CS(=O)(=O)Nc1cccc(-c2ccc3ncnc(NCc4cccs4)c3c2)c1 -10.9%

Source: PubChem BioAssay AID1645887 (National Center for Advancing Translational Sciences (NCATS), 2021)
